Measured values: PubChem BioAssay AID759 (NMMLSC, 2007)
In all, about 190,000 compounds went through this assay and about 270 (0.14%) were called active. This list was built around the results that the source calls inconclusive (neither active nor inactive); the mix of calls is not that of the screen.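 How the source made its calls: active means GTP binding activity at least 20% away from the 100% baseline, either lowered as inhibitor or raised as activator; inconclusive means flagged as likely green fluorescent, judged across all proteins in the well; inactive means the rest.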

Each molecule was assayed against GTPase HRas (Homo sapiens) (UniProt P01112) (assay: HRas wt fluorescent GTP binding changes, either direction – biochemical, wildtype, bead-based flow cytometry, multiplex, primary screen (AID 759;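 further: 0% = unlabeled GTP competition control and 100% = no-compound control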)). Conditions: GST-Ras wt beads, Bodipy-FL-GTP binding, at 10 µM, actives lie on both sides.
Chain of UniProt P01112 (P01112 whole entry, looked up): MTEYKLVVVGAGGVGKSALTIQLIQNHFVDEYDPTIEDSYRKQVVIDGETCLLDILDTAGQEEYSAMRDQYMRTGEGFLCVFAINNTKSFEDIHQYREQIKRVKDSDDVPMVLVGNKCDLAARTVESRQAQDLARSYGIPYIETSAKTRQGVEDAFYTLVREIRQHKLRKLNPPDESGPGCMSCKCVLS

Compound	GTP binding activity
Cc1nc(N2CCOCC2)nc(OCCN2CCOCC2)c1[N+](=O)[O-]	inactive: 98%
Cn1cc(-c2nnnn2-c2ccccc2)c(=O)c2ccccc21	inconclusive: 97%
CCOc1cc(CNCc2ccncc2)cc(Cl)c1OC	inconclusive: 104%
Fc1ccc(/C=C2\CCCC3=C2Nc2ncnn2C3c2ccc(F)cc2)cc1 (configuration not stated)	inactive: 100%
CCNc1nc(SC)nc(N(C#N)CC(=O)OC)n1	inconclusive: 103%
CC(C)NC(=O)C(=O)NCCN1CCN(C(=O)c2ccc(C(C)(C)C)cc2)CC1	inconclusive: 96%
Cc1cc(-c2nn(-c3ccccc3F)cc2CN(C)CC(O)CO)c(C)s1 (configuration not stated)	inactive: 94%
Cc1cc(N/N=C/c2ccc(O)cc2O)nc(-c2ccccc2O)n1	active: 79%
O=C1OC(Cc2ccccn2)C(O)=C1C1=NCCCN1 (configuration not stated)	inconclusive: 102%
CCN(CC)CCn1c(NCc2ccc3c(c2)OCO3)nc2ccccc21	inactive: 100%
Cc1nc(N)nc(Nc2ccc(Cl)cc2)c1Br	inconclusive: 103%
CN(C)c1ccc(N/C(N)=N/c2nc(C(F)(F)F)cc(C(F)(F)F)n2)cc1	inactive: 96%
Nc1nc(CSC(=S)N2CCCCC2)nc(Nc2ccccc2)n1	inconclusive: 90%
CCCNC(=O)COc1ncnc2sc(C)c(C)c12	inconclusive: 102%
Cn1c(N/N=C/c2ccccc2)nc2sc3c(c2c1=O)CCC3	inconclusive: 81%
COc1cc(NC(=O)c2ccc(COc3ccccc3Br)o2)cc(OC)c1OC	inconclusive: 102%
Cc1ccc(NC(=O)Nc2cccc(Cl)c2)c(C(=O)O)c1	inconclusive: 90%
CC1Cc2ccccc2N1C(=O)CN1C(=O)CN(C)C(=O)c2ccccc21 (configuration not stated)	inconclusive: 102%
O=C(CN1C(=O)c2ccccc2S1(=O)=O)N1CCN(c2ccc(F)cc2)CC1	inconclusive: 104%
COc1cc(CCNc2ccc3nnc(-c4ccccc4)n3n2)cc(OC)c1OC	active: 71%
CCCn1nc2cc(C(=O)N(CC)c3ccc(OC)cc3)ccc2c1OCC	inconclusive: 103%
COc1cccc(/C=N/n2cnnc2)c1OCc1ccccc1	inconclusive: 103%
COc1ccc(NC(=S)N2CCCN(Cc3cc(C)ccc3C)C2)cc1	inactive: 99%

Compound	GTP binding activity
O=C(Nc1ccc2nc(-c3cccs3)c(-c3cccs3)nc2c1)N1CCOCC1	inconclusive: 92%
Cc1ccc2nc(-c3ccc(NC(=O)COC(=O)c4ccc([N+](=O)[O-])o4)cc3)sc2c1	inconclusive: 108%
O=C(NCc1cccnc1)C(=O)Nc1nc2ccccc2s1	inconclusive: 92%
Cc1ccc(C(=O)Nc2ccccc2C(=O)O)cc1S(=O)(=O)NCc1ccccc1	inconclusive: 92%
Cc1cnc(CNC(=O)c2ccc(OC3CCN(C(=O)C4CC4)CC3)cc2)cn1	inactive: 102%
Cn1c(=O)c2cc(S(=O)(=O)Nc3cc(C(=O)O)cc(C(=O)O)c3)ccc2n(C)c1=O	inconclusive: 90%
CCC(=O)Nc1ccc2c(c1)OCCO2	inconclusive: 103%
CCn1c(NC(=O)Nc2cccc(C)c2C)cc2sccc21	inconclusive: 101%
O=C(COc1cccc(NC(=O)c2ccco2)c1)c1ccc(F)cc1	inconclusive: 104%
CCCCNC(=S)NC(=O)c1ccccc1Br	inconclusive: 101%
CCCC(Oc1ccc(Br)cc1)c1nc2c3cc(OC)c(OC)cc3nc(=S)n2[nH]1 (configuration not stated)	inconclusive: 91%
O=C(COc1ccccc1)Nc1ccc(-c2nnc(-c3ccco3)o2)cc1	inconclusive: 93%
Cc1ccc(CCN=c2c([N+](=O)[O-])nn(-c3ccccc3)n2O)cc1	inconclusive: 92%
COc1cc(C(=O)Nc2cccc3ncccc23)cc(OC)c1OC	inactive: 99%
Cc1nnc(NC(=O)CSc2ccc3nnc(-c4ccccn4)n3n2)s1	inactive: 97%
O=S1(=O)N=C(N(CCO)/N=C/c2ccccc2)c2ccccc21	active: 72%
CC(=O)c1c(C)[nH]c(C(=O)OCC(=O)Nc2ccccc2Cl)c1C	inconclusive: 96%
CCCCCCC(=O)NN1CCN(C)CC1	inconclusive: 105%
COc1ccc(OC)c(NC2=NC3(CCCC3)N=C(N)N2)c1	inconclusive: 89%
CCOC(=O)c1ccc(NC(=O)c2c(NC(=O)CCC(=O)O)sc3c2CCCCC3)cc1	inactive: 93%
Cc1ccc(CN2C(=O)CCC2C(=O)NCc2ccccc2Cl)cc1 (configuration not stated)	inconclusive: 101%
COc1ccc2[nH]c3nc(SCC(=O)Nc4ccc5c(c4)OCO5)nnc3c2c1	active: 74%
CC(C)N(C(=O)Cn1cnc2cc([N+](=O)[O-])ccc2c1=O)C(C)C	inconclusive: 80%

Compound	GTP binding activity
O=C(Nc1nc(-c2cccs2)cs1)c1ccco1	inconclusive: 92%
Cc1nc(N/N=C/c2ccc(O)cc2)c2cnn(-c3ccccc3)c2n1	inconclusive: 77%
CC(C)(C)NC(=O)CSc1nccn1Cc1ccccc1	inactive: 86%
CCCCCn1c(NC(=O)c2ccco2)c(S(=O)(=O)c2ccc(C)cc2)c2nc3ccccc3nc21	inconclusive: 89%
NS(=O)(=O)c1ccc(N/C=C\C(=O)c2cccc3ccccc23)cc1	inconclusive: 103%
COc1ccc(CC2(CO)CCN(S(=O)(=O)c3sccc3C)CC2)cc1	active: 61%
Cc1ccc(NCC(=O)N/N=C/c2c[nH]c3ccccc23)cc1	inconclusive: 93%
CCOC(=O)Cn1c(=O)c2c(nc3n2CCN3Cc2ccccc2)n(C)c1=O	inactive: 100%
COc1ccc(/C=N/Nc2nc(-c3cccc(S(=O)(=O)N4CCCC4)c3)cs2)cc1OC	inconclusive: 97%
O=C1CC(c2ccccc2)Sc2ccccc2N1 (configuration not stated)	inconclusive: 104%
c1ccc(N2CCN(c3cnccn3)CC2)nc1	inconclusive: 103%
Cc1cc(=O)n2c3ccccc3n(CC(O)CN3CCCC3)c2c1C#N (configuration not stated)	inconclusive: 102%
COc1ccc(-c2nnc(CSc3nc4ccccc4c(=O)n3C)o2)cc1OC	inactive: 107%
Cc1ccc(CNC(=O)C2CCN(S(=O)(=O)c3c(C)noc3C)CC2)cc1	inconclusive: 103%
Cc1ccccc1C(=O)NNC(=O)c1cc(N)cc([N+](=O)[O-])c1	inactive: 100%
Clc1ccc(/C=N/Nc2nc(Cl)nc3ccccc23)cc1	inconclusive: 93%
O=C(CCn1c(=O)oc2ccccc21)N(Cc1ccccc1)c1ccccc1	inactive: 97%
COc1ccc(-c2[nH]ncc2CN(CCO)Cc2cccs2)c(F)c1	inactive: 96%
CC(NC(=S)Nc1ccccc1Cl)C(c1cccs1)N1CCCC1 (configuration not stated)	inactive: 97%
CC(C)NC(=O)COc1ccc(/C=N/NS(=O)(=O)c2ccccc2)cc1	inconclusive: 95%
Cc1ccc(CNC(=O)c2ccc3nc4[nH]c5ccccc5c4nc3c2)cc1	inconclusive: 94%
O=C(NNC(=O)C1CCN(c2ncccn2)CC1)c1ccccc1	inconclusive: 97%
COc1ccc(S(=O)(=O)NCC2CCCN(Cc3ccccc3C)C2)cc1 (configuration not stated)	inactive: 99%

Compound	GTP binding activity
CNC(=O)c1cc2ccccc2o1	inconclusive: 101%
CCN(Cc1ccccc1)c1ccc(/C=N/NS(=O)(=O)c2cccc([N+](=O)[O-])c2)cc1	inactive: 105%
Cc1ccc(NC(=O)c2ccccc2)cc1	inconclusive: 105%
COc1ccc(-n2c(SCC(=O)N3CCCC(C)C3)nnc2-c2cccnc2)cc1 (configuration not stated)	inconclusive: 97%
Cc1ccc(S(=O)(=O)N(C)c2ccc(OCC(=O)NC3=NCCS3)cc2)cc1	inactive: 99%
COc1ccc(C(O)(c2ccccc2OC)C(CN2CCOCC2)c2ccccc2)cc1 (configuration not stated)	inactive: 100%
Cc1ccc(C(=O)NC(=S)/C=C2\N(C)c3ccccc3C2(C)C)cc1	inactive: 101%
CC(NC(=O)/C(C#N)=C1\N=C(NC(=O)c2cccs2)c2ccccc21)c1ccccc1 (configuration not stated)	inconclusive: 103%
NC(=O)c1cccnc1Oc1cccc(Cl)c1	inconclusive: 104%
O=C(/C=C/c1ccc(Cl)cc1Cl)NCCSCc1ccccc1	inconclusive: 95%
CC1Cc2ccccc2N1C(=O)CSc1nnc2c(n1)[nH]c1ccc(F)cc12 (configuration not stated)	inconclusive: 88%
COc1ccccc1/C=C1\S/C(=N/NC(=O)c2cccc(Br)c2)NC1=O	inconclusive: 90%
CCn1cc(C(=O)NCc2ccco2)c(=O)c2cc(S(=O)(=O)N3CC(C)CC(C)C3)ccc21 (configuration not stated)	inconclusive: 94%
O=C(c1ccco1)c1cn(CC(=O)N2CCCCCC2)c2ccccc12	inactive: 99%
Cc1ccc(S(=O)(=O)/N=c2\ccc(Cl)cn2C(F)F)cc1	inactive: 99%
COC(=O)COc1ccc(/C=C2/SC(=O)N(CC(=O)N3CCCC3)C2=O)cc1Br	inconclusive: 104%
O=C(NC1CCCCC1)C(c1cccs1)N(C(=O)c1ccco1)c1ccc2c(c1)OCCO2 (configuration not stated)	inactive: 98%
COc1ccccc1NC(=O)c1ccc2nc(-c3ccccc3)c(-c3ccccc3)nc2c1	inconclusive: 104%
CCCn1c(N)c(C(=O)CSc2nc3ccccc3c(=O)n2Cc2ccccc2)c(=O)[nH]c1=O	inconclusive: 93%
CCN(C(=O)Cn1cnc2cc([N+](=O)[O-])ccc2c1=O)C1CCS(=O)(=O)C1 (configuration not stated)	inconclusive: 87%
Cc1ccc(C(=O)Nc2ccc3c(c2)OCO3)cc1S(=O)(=O)N1CCCC1	inconclusive: 86%
Cc1nnc(SCC(=O)c2c(N)n(Cc3ccccc3)c(=O)n(C)c2=O)n1C	inconclusive: 87%
CCn1ncc(CN2CCN(Cc3cccc(OC)c3)C(CCO)C2)c1C (configuration not stated)	inactive: 96%
